Consider one molecule from patent US12171806B2, “Therapeutic regimens and methods for lowering blood glucose and/or body weight using GLP-1R and GCGR balanced agonists” (priority 2021, dated 2024).

For this experiment, the target named is T1, glucagon (human, cloned into CHO cells) receptor (Homo sapiens, UniProt P47871).
T1 construct: host or cells: CHO cells
Kind of experiment: cAMP stimulation cellular assay (DiscoveRx LeadHunter), glucagon receptor. In kind it is cell-based.

T1 sequence (P47871 26-477): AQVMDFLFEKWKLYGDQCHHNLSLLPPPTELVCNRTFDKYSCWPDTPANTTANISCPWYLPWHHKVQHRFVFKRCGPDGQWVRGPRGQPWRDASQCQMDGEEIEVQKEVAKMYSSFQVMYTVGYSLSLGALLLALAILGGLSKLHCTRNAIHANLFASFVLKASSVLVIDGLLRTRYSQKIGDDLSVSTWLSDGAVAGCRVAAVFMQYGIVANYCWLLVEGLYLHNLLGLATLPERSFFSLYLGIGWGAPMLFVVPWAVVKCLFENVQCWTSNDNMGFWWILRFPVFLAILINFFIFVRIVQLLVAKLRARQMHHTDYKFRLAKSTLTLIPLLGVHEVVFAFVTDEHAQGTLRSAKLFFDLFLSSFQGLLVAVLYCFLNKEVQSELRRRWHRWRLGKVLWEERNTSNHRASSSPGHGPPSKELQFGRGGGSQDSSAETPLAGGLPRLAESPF

Turning to `CC[C@H](C)[C@H](NC(=O)[C@H](Cc1ccccc1)NC(=O)[C@H](CCC(=O)O)NC(=O)[C@@H]1CCCCNC(=O)CC[C@H](NC(=O)[C@H](CC(=O)O)NC(=O)[C@H](CC(C)C)NC(=O)[C@H](Cc2ccc(O)cc2)NC(=O)[C@H](CCCCN)NC(=O)[C@H](CO)NC(=O)[C@H](Cc2ccc(O)cc2)NC(=O)[C@H](CC(=O)O)NC(=O)[C@H](CO)NC(=O)[C@@H](NC(=O)[C@H](Cc2ccccc2)NC(=O)[C@@H](NC(=O)CNC(=O)[C@H](CCC(N)=O)NC(=O)C(C)(C)NC(=O)[C@@H](N)Cc2c[nH]cn2)[C@@H](C)O)[C@@H](C)O)C(=O)N[C@@H](CCC(N)=O)C(=O)N[C@@H](C)C(=O)N[C@@H](C)C(=O)N1)C(=O)N[C@@H](CCCCNC(=O)[C@H]1O[C@@H](OCCCCCCCCCCCCCCCCCC(=O)O)[C@H](O)[C@@H](O)[C@@H]1O)C(=O)N[C@@H](Cc1c[nH]c2ccccc12)C(=O)N[C@@H](CC(C)C)C(=O)N[C@@H](CC(C)C)C(=O)N[C@@H](CCC(N)=O)C(=O)N[C@H](C(N)=O)[C@@H](C)O` [EU-A1872], the “Ovalbumin vs. BSA-fold improv/worsen, GCG R” value stood at 30 fold.
